From the supplement of paper PMC4604168 (melanoma cell lines)
Some of the results follow. Single values are uncertain, as repeats are few or missing.

What follows are compounds tested on WM451Lu (assay: cell count relative to DMSO control; melanoma cells; higher = more viable cells). Settings: library dose: standard library concentration; 72 h.
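Further: cells treated in 1,536-well plates, then fixed and DAPI-stained, with nuclei counted from automated high-throughput microscope images.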

| SMILES | cell count [%] |
| --- | --- |
| CCc1ccc(CCOc2ccc(CC3SC(=O)NC3=O)cc2)nc1 (stereo not given) [pioglitazone] + N#Cc1c(O)c2c(-c3ccc(-c4ccccc4O)cc3)csc2[nH]c1=O [A769662] (first compound 10 µM, partner dose 10 µM) | 90.8 |
| COc1cc2c(Oc3ccc4[nH]c(C)cc4c3F)ncnc2cc1OCCCN1CCCC1 [cediranib] + O=C1NC(=O)/C(=C/c2ccc(-c3ccc(F)cc3O)o2)S1 [AS252424] (first compound 2 µM, partner dose 5 µM) | 103 |
| CN(NC(=O)CC(=O)NN(C)C(=S)c1ccccc1)C(=S)c1ccccc1 + Oc1cc(-c2nc(-c3ccccc3)[nH]c2-c2ccncc2)ccc1Cl [L779450] (first compound 0.03 µM, partner dose 1 µM) | 51 |
| CN(NC(=O)CC(=O)NN(C)C(=S)c1ccccc1)C(=S)c1ccccc1 + Oc1nc(-c2ccc(C(F)(F)F)cc2)nc2c1CSCC2 [XAV939] (first compound 0.03 µM, partner dose 10 µM) | 61.9 |
| COc1cc2c(Oc3ccc4[nH]c(C)cc4c3F)ncnc2cc1OCCCN1CCCC1 [cediranib] + O=C(Nc1ccccc1)c1cc([N+](=O)[O-])ccc1Cl [GW9662] (first compound 2 µM, partner dose 10 µM) | 76.3 |
| CCc1ccc(CCOc2ccc(CC3SC(=O)NC3=O)cc2)nc1 (stereo not given) [pioglitazone] + COc1ccc(-c2ccc3c(N4CCOCC4)nc(N4C[C@@H](C)O[C@@H](C)C4)nc3n2)cc1CO [KU0063794] (first compound 10 µM, partner dose 0.1 µM) | 77 |
| CC(C)(C)c1cnc(CSc2cnc(NC(=O)C3CCNCC3)s2)o1 + O=c1cc(-c2cccc3c2Sc2ccccc2S3)oc(N2CCOCC2)c1 [KU55933] (first compound 0.05 µM, partner dose 5 µM) | 74.7 |
| Cc1ccc(NC(=O)c2cccc(N(C)C)c2)cc1NC(=O)c1ccc(O)cc1 + COc1cc2ncnc(Nc3ccc(Oc4ccccc4)cc3)c2cc1OC [SrcI1] (first compound 10 µM, partner dose 10 µM) | 79.3 |
| CN(NC(=O)CC(=O)NN(C)C(=S)c1ccccc1)C(=S)c1ccccc1 + COc1ccc(COc2ccc(Cc3cnc(N)nc3N)cc2OC)cc1 [GW2580] (first compound 0.03 µM, partner dose 5 µM) | 94.9 |
| COc1cc2c(Oc3ccc4[nH]c(C)cc4c3F)ncnc2cc1OCCCN1CCCC1 [cediranib] + Oc1cc(-c2nc(-c3ccccc3)[nH]c2-c2ccncc2)ccc1Cl [L779450] (first compound 2 µM, partner dose 1 µM) | 43.9 |
| CCCCCCCCc1ccc(CCC(N)(CO)CO)cc1 [fingolimod] + CCc1ccc(CCOc2ccc(CC3SC(=O)NC3=O)cc2)nc1 [pioglitazone] (first compound 10 µM, partner dose 10 µM) | 10.4 |
| Cc1ccc(NC(=O)c2cccc(N(C)C)c2)cc1NC(=O)c1ccc(O)cc1 + N#Cc1c(O)c2c(-c3ccc(-c4ccccc4O)cc3)csc2[nH]c1=O [A769662] (first compound 10 µM, partner dose 10 µM) | 106 |
| CCc1ccc(CCOc2ccc(CC3SC(=O)NC3=O)cc2)nc1 (stereo not given) [pioglitazone] + O=c1cc(-c2cccc3c2Sc2ccccc2S3)oc(N2CCOCC2)c1 [KU55933] (first compound 10 µM, partner dose 5 µM) | 91.1 |
| CC(C)(C)c1cnc(CSc2cnc(NC(=O)C3CCNCC3)s2)o1 + Oc1cc(-c2nc(-c3ccccc3)[nH]c2-c2ccncc2)ccc1Cl [L779450] (first compound 0.05 µM, partner dose 1 µM) | 55.2 |
| CCc1ccc(CCOc2ccc(CC3SC(=O)NC3=O)cc2)nc1 (stereo not given) [pioglitazone] + COc1cc2ncnc(Nc3ccc(Oc4ccccc4)cc3)c2cc1OC [SrcI1] (first compound 10 µM, partner dose 10 µM) | 107 |
| Cc1ccc(NC(=O)c2cccc(N(C)C)c2)cc1NC(=O)c1ccc(O)cc1 + Cn1cc(/C=C2\C(=O)Nc3cccnc32)c2ccccc21 [GW441756] (first compound 10 µM, partner dose 2 µM) | 92.3 |
| NC(=O)c1ccc(N(C(N)=O)c2c(F)cccc2F)nc1-c1ccc(F)cc1F + O=C1NC(=O)/C(=C/c2ccc(-c3ccc(F)cc3O)o2)S1 [AS252424] (first compound 2 µM, partner dose 5 µM) | 112 |
| Cc1ccc(NC(=O)c2cccc(N(C)C)c2)cc1NC(=O)c1ccc(O)cc1 + c1cc(-c2cnn3cc(-c4ccc(OCCN5CCCCC5)cc4)cnc23)ccn1 [Dorsomorphin] (first compound 10 µM, partner dose 2 µM) | 110 |

| SMILES | cell count [%] |
| --- | --- |
| CN(NC(=O)CC(=O)NN(C)C(=S)c1ccccc1)C(=S)c1ccccc1 + O=c1cc(-c2cccc3c2Sc2ccccc2S3)oc(N2CCOCC2)c1 [KU55933] (first compound 0.03 µM, partner dose 5 µM) | 83.4 |
| CC(C)(C)c1cnc(CSc2cnc(NC(=O)C3CCNCC3)s2)o1 + Oc1nc(-c2ccc(C(F)(F)F)cc2)nc2c1CSCC2 [XAV939] (first compound 0.05 µM, partner dose 10 µM) | 69 |
| COc1cc2c(Oc3ccc4[nH]c(C)cc4c3F)ncnc2cc1OCCCN1CCCC1 [cediranib] + Cn1cc(/C=C2\C(=O)Nc3cccnc32)c2ccccc21 [GW441756] (first compound 2 µM, partner dose 2 µM) | 82 |
| CCc1ccc(CCOc2ccc(CC3SC(=O)NC3=O)cc2)nc1 (stereo not given) [pioglitazone] + CCN(CC)CCCCNc1ncc2cc(-c3cc(OC)cc(OC)c3)c(NC(=O)NC(C)(C)C)nc2n1 [PD173074] (first compound 10 µM, partner dose 0.5 µM) | 82.3 |
| CCCCCCCCc1ccc(CCC(N)(CO)CO)cc1 [fingolimod] + c1cc(-c2cnn3cc(-c4ccc(OCCN5CCCCC5)cc4)cnc23)ccn1 [Dorsomorphin] (first compound 10 µM, partner dose 2 µM) | 18 |
| CCc1ccc(CCOc2ccc(CC3SC(=O)NC3=O)cc2)nc1 (stereo not given) [pioglitazone] + CC(C)CCN1c2nc(Nc3cc(F)c(O)c(F)c3)ncc2N(C)C(=O)C1C [BID1870] (first compound 10 µM, partner dose 1 µM) | 105 |
| CCCCCCCCc1ccc(CCC(N)(CO)CO)cc1 [fingolimod] + COc1ccc2c(c1)CCC1C2CCC2(C)C(NCCCCCCN3C(=O)C=CC3=O)CCC12 [U73122] (first compound 10 µM, partner dose 2 µM) | 20.9 |
| CC(C)(C)c1cnc(CSc2cnc(NC(=O)C3CCNCC3)s2)o1 + O=C1NC(=O)/C(=C/c2ccc(-c3ccc(F)cc3O)o2)S1 [AS252424] (first compound 0.05 µM, partner dose 5 µM) | 79.9 |
| NC(=O)c1ccc(N(C(N)=O)c2c(F)cccc2F)nc1-c1ccc(F)cc1F + Oc1cc(-c2nc(-c3ccccc3)[nH]c2-c2ccncc2)ccc1Cl [L779450] (first compound 2 µM, partner dose 1 µM) | 80.1 |
| Cc1ccc(NC(=O)c2cccc(N(C)C)c2)cc1NC(=O)c1ccc(O)cc1 + COC(=O)c1sccc1S(=O)(=O)Nc1ccc(Nc2ccccc2)cc1OC [GSK0660] (first compound 10 µM, partner dose 5 µM) | 91.5 |
| CN(NC(=O)CC(=O)NN(C)C(=S)c1ccccc1)C(=S)c1ccccc1 + COc1ccc2c(c1)CCC1C2CCC2(C)C(NCCCCCCN3C(=O)C=CC3=O)CCC12 [U73122] (first compound 0.03 µM, partner dose 2 µM) | 106 |
| COc1cc2c(Oc3ccc4[nH]c(C)cc4c3F)ncnc2cc1OCCCN1CCCC1 [cediranib] + Cc1cc([N+](=O)[O-])ccc1NS(=O)(=O)c1cc(Cl)ccc1Cl [FH535] (first compound 2 µM, partner dose 5 µM) | 90.4 |
| NC(=O)c1ccc(N(C(N)=O)c2c(F)cccc2F)nc1-c1ccc(F)cc1F + O=C(Nc1ccccc1)c1cc([N+](=O)[O-])ccc1Cl [GW9662] (first compound 2 µM, partner dose 10 µM) | 80.5 |
| CCCCCCCCc1ccc(CCC(N)(CO)CO)cc1 [fingolimod] + N#Cc1c(O)c2c(-c3ccc(-c4ccccc4O)cc3)csc2[nH]c1=O [A769662] (first compound 10 µM, partner dose 10 µM) | 15.9 |
| CCCCCCCCc1ccc(CCC(N)(CO)CO)cc1 [fingolimod] + O=C(Nc1ccccc1)c1cc([N+](=O)[O-])ccc1Cl [GW9662] (first compound 10 µM, partner dose 10 µM) | 13.2 |
| Cc1ccc(NC(=O)c2cccc(N(C)C)c2)cc1NC(=O)c1ccc(O)cc1 + COc1cc(N2CCC(N3CCN(C)CC3)CC2)ccc1Nc1ncc(Cl)c(Nc2ccccc2S(=O)(=O)C(C)C)n1 [NVP-TAE684] (first compound 10 µM, partner dose 0.4 µM) | 91.9 |
| COc1cc2c(Oc3ccc4[nH]c(C)cc4c3F)ncnc2cc1OCCCN1CCCC1 [cediranib] + CCN(CC)CCCCNc1ncc2cc(-c3cc(OC)cc(OC)c3)c(NC(=O)NC(C)(C)C)nc2n1 [PD173074] (first compound 2 µM, partner dose 0.5 µM) | 91.1 |
